Results published in PMC5062570 (Nature Communications, 2016).
Where “and” joins values, the source holds several entries; their conditions need not be identical. Equal entries are not always repeated. Where two headings read alike, the source gives them in different places.

What was measured:
[1] = biological target: T1, PF-7802-labelled proteins in ARPE-19 cells (Homo sapiens, UniProt O14773); settings: for Median SILAC Ratio (Heavy/Light): TPP1 Tripeptidyl-peptidase 1 (O14773)
T1 sequence (O14773 196-563): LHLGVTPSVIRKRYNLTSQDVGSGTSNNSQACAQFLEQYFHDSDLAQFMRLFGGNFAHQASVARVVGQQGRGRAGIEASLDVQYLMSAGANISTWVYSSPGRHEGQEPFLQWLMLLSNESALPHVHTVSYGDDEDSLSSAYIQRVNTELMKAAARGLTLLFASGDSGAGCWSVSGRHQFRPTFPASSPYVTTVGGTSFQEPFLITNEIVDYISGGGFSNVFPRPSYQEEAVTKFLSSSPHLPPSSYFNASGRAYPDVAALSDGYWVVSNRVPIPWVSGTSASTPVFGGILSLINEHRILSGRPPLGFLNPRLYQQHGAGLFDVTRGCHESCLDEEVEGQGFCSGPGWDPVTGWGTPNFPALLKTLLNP

[2] = biological target: T2, PF-7802-labelled proteins in ARPE-19 cells (Homo sapiens, UniProt P26006); settings: for Median SILAC Ratio (Heavy/Light): protein ITGA3 Integrin alpha-3 (P26006), one column per replicate
T2 sequence (P26006 33-1051): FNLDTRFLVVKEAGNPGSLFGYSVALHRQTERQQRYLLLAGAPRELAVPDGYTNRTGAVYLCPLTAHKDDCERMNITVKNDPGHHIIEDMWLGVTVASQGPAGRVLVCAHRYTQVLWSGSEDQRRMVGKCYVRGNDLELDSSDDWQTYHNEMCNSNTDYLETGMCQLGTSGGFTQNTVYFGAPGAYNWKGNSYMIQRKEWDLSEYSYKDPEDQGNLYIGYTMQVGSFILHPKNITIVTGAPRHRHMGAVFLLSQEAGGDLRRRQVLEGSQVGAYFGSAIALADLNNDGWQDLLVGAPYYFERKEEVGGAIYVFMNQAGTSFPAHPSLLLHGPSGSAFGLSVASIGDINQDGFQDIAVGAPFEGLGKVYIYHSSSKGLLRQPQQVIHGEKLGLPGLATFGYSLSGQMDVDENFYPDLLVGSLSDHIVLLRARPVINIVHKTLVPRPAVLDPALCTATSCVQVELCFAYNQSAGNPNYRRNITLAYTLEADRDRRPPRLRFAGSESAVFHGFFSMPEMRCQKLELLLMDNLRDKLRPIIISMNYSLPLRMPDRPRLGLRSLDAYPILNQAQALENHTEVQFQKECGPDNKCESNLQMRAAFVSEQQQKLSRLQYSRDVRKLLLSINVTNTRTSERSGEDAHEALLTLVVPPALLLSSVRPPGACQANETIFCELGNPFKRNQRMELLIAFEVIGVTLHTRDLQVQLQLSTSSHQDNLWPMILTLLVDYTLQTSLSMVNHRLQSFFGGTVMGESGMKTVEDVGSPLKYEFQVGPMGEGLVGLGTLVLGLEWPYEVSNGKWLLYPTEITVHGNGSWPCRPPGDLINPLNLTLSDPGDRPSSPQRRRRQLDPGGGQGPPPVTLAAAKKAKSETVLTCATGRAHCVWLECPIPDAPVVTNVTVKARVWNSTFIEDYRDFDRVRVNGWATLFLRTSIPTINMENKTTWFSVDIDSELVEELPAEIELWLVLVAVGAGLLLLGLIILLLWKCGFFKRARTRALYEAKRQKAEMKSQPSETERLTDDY

[3] = biological target: PF-7802-labelled proteins in ARPE-19 cells (Homo sapiens, UniProt P43243); settings: protein MATR3 Matrin-3 (P43243); replicates in separate columns
[4] = biological target: PF-7802-labelled proteins in ARPE-19 cells (Homo sapiens, UniProt P62318); settings: SNRPD3 Small nuclear ribonucleoprotein Sm D3 (P62318)
[5] = biological target: T3, PF-7802-labelled proteins in ARPE-19 cells (Homo sapiens, UniProt O75083); settings: protein WDR1 WD repeat-containing protein 1 (O75083)
T3 sequence (O75083 1-606): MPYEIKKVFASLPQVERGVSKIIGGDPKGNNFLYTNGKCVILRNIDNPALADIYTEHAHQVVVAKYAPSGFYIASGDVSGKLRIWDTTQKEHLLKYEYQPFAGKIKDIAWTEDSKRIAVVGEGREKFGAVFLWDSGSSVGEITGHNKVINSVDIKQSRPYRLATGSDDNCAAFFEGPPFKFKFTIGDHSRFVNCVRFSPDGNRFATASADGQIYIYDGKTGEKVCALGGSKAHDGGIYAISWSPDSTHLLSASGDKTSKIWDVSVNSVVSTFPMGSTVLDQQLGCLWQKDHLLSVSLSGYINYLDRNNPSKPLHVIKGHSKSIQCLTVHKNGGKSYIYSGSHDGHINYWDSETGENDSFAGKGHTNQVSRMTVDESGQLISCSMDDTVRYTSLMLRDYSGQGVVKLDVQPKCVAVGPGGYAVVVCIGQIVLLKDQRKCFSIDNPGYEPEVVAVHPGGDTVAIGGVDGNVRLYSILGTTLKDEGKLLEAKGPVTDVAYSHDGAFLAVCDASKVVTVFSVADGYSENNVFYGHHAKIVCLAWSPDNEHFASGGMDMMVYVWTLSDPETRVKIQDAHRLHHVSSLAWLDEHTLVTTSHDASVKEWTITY

[6] = biological target: PF-7802-labelled proteins in ARPE-19 cells (Homo sapiens, UniProt Q7Z406); settings: protein MYH14 Myosin-14 (Q7Z406); replicates in separate columns
[7] = biological target: PF-7802-labelled proteins in ARPE-19 cells (Homo sapiens, UniProt P14678); settings: SNRPB Small nuclear ribonucleoprotein-associated proteins B and B' (P14678)
[8] = biological target: PF-7802-labelled proteins in ARPE-19 cells (Homo sapiens, UniProt P34897); settings: SHMT2 Serine hydroxymethyltransferase, mitochondrial (P34897)
[9] = biological target: PF-7802-labelled proteins in ARPE-19 cells (Homo sapiens, UniProt P54819); settings: protein AK2 Adenylate kinase 2, mitochondrial (P54819)
[10] = biological target: PF-7802-labelled proteins in ARPE-19 cells (Homo sapiens, UniProt Q15438); settings: protein CYTH1 Cytohesin-1 (Q15438)
Sequence of UniProt Q15438 (Q15438 whole entry): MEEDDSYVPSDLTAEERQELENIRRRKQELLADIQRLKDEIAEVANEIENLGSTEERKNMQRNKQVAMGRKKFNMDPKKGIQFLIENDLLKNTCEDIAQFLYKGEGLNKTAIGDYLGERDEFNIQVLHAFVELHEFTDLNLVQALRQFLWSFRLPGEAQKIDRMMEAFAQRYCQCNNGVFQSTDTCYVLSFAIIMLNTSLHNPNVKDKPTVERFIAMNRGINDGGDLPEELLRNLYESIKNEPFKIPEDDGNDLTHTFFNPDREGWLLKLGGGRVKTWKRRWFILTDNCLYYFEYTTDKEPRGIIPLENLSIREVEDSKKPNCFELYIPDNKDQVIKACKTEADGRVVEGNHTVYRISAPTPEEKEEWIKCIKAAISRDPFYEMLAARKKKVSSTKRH

Sequence of UniProt P62318 (P62318 whole entry): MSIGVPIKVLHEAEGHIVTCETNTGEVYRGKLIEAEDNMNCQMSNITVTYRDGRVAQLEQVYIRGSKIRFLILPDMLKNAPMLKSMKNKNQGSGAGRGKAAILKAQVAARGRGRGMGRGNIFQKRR
Sequence of UniProt P43243 (P43243 whole entry): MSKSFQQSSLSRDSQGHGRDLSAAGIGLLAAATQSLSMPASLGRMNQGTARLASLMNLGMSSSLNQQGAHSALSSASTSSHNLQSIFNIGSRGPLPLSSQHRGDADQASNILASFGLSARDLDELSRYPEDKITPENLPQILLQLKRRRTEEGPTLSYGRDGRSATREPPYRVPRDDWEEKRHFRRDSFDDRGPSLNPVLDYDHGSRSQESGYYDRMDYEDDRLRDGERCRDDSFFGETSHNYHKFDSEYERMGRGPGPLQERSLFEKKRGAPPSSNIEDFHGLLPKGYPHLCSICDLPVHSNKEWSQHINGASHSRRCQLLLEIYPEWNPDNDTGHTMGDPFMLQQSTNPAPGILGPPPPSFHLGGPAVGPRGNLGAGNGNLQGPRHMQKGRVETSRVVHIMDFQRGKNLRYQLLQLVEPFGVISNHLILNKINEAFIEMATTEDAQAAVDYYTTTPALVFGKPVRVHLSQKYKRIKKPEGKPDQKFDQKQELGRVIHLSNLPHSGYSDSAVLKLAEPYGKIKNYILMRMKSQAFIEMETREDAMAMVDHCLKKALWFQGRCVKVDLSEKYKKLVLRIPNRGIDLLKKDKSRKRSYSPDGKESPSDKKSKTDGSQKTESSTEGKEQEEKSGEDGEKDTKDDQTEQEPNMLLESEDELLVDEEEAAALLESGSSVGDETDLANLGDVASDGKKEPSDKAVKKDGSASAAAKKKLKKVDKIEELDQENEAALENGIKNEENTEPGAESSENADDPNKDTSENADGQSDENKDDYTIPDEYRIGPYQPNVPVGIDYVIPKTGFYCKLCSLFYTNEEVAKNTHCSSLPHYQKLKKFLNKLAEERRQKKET
Sequence of UniProt Q7Z406 (Q7Z406 whole entry): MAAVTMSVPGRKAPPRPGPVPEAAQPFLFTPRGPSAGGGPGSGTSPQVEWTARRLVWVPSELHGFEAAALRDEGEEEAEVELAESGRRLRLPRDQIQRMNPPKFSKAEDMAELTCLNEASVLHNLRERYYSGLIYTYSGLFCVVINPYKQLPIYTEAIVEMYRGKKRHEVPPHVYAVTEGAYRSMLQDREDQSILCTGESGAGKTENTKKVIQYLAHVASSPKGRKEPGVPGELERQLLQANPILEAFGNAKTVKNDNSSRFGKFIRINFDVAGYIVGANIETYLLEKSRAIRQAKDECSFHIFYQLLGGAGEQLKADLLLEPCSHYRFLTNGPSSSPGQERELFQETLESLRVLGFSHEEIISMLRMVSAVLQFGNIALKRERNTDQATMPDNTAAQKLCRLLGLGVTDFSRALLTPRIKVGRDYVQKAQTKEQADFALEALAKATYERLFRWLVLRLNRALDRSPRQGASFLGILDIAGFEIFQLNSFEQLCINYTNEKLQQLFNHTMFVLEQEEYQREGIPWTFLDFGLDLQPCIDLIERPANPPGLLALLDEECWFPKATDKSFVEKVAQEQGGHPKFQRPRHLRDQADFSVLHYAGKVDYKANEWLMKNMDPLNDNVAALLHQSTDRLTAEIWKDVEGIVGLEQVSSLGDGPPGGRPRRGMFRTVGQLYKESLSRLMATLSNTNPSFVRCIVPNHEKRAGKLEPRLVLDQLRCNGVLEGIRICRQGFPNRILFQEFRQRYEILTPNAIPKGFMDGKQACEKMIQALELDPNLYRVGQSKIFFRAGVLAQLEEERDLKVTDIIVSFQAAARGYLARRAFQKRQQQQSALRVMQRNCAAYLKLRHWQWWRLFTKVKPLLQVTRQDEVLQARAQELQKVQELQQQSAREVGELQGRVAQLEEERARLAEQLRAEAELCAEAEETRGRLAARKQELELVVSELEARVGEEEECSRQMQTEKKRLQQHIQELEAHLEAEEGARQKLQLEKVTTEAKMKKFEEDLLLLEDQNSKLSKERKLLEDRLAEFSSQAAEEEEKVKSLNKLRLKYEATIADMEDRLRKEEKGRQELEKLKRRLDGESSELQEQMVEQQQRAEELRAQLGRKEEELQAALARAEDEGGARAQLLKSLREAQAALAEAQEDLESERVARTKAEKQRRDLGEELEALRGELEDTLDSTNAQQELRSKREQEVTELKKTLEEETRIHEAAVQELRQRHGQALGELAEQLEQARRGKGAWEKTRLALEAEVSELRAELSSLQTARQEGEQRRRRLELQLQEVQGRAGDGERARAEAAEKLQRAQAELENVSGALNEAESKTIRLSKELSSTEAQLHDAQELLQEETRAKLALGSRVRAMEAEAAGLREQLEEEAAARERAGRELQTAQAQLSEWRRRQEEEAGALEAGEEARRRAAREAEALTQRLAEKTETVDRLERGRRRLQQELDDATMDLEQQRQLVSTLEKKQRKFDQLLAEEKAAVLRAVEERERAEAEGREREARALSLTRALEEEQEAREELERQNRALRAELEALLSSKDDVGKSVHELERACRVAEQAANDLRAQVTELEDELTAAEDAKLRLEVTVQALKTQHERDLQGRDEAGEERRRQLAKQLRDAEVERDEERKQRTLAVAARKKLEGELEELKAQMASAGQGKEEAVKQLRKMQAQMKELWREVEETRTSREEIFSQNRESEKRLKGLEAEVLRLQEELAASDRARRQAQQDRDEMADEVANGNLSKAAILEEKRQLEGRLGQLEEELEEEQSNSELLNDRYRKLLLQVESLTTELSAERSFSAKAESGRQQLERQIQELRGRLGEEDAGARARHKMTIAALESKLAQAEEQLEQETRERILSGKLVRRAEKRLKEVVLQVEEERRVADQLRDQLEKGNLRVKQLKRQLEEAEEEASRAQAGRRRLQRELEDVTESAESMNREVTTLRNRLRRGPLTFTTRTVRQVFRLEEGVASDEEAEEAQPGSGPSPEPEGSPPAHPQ

Row | Structure (SMILES) | SILAC ratio (DMSO/CP-108671) ([1]; O14773 TPP1 Tripeptidyl-peptidase 1) | Median SILAC Ratio (Heavy/Light) [1] | SILAC ratio (DMSO/CP-108671) ([2]; P26006 ITGA3 Integrin alpha-3) | Median SILAC Ratio (Heavy/Light) [2] | Median SILAC Ratio (Heavy/Light) [3] | Median SILAC Ratio (Heavy/Light) [4] | Median SILAC Ratio (Heavy/Light) ([5]; replicate R1) | Median SILAC Ratio (Heavy/Light) [6] | Median SILAC Ratio (Heavy/Light) [7] | Median SILAC Ratio (Heavy/Light) [8] | Median SILAC Ratio (Heavy/Light) [9] | Median SILAC Ratio (Heavy/Light) [10] | Median SILAC Ratio (Heavy/Light) ([5]; replicate R3)
1 | CNC1CCN(C(=O)C[C@@H](Cc2ccccc2)C(=O)N[C@@H](CSC)C(=O)N[C@@H](CC2CCCCC2)[C@@H](O)C(=O)OC(C)C)CC1 [CP-108671, reference compound] | 0.88 | 1.135 | 0.95 | 1.057 | 1.1401 | 1.034 | 1 | 2.162 | 1.054 | 1.0983 | 2.186 | 1.948 | –
2 | Cc1cc([C@H]2C[C@H]3[C@@H](C)SC(N)=N[C@@]3(c3ccc(F)cc3F)CO2)on1 [PF-9283] | – | 1.274 and 1.656 and 1.755 | – | 1.082 and 0.7141 | 1.224 | 0.9988 | 0.8039 | 1.841 | 1.326 | 1.197 | 1.796 | 1.612 | 1.4326
